T1: UNK ZnF1-3 (human, UniProt Q9C0B0 31-174)
T1 sequence: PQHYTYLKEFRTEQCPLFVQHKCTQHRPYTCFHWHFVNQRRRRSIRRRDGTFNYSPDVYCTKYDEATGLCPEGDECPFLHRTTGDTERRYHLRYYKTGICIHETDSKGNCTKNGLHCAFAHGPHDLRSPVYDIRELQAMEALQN

B1: chr1:33855670:33855671:-_ENSMUSG00000042197_ENSMUST00000044455|mus_mus|FALSE|FALSE (ssRNA)
RNA: GGGAGUUCUACAGUCCGACGAUCAUUAAGAAGGAGUACAUUUAAAUAGUGCAAUUGUACAGGUGAUAAAGGUAACAAACUAAGAGUAAAUCACUGUACAAACGUUACAUAAAUACCACAUCAAAGGCUAGGUCUUAAACGUAACAACAGAGGAUUGAGCAUCA
B2: 10704985_10707675_999_CDS_ENSG00000111845_ENST00000379568|human|control|control (ssRNA)
RNA: GGGAGUUCUACAGUCCGACGAUCAAUUUCAAAACUGAACAUGUCCUUUACCCUGUUUUCAUGAGCUUUAAAUUCGCAGAGGCACACUAGUGAAUCACAGUCAAAAAACCUUAUAACUUCUUCAUCUCCAGCCACUGCAAGGACCAACAGAGGAUUGAGCAUCA
B3: chr7:149068622:149068623:-_ENSMUSG00000025139_ENSMUST00000001950|mus_hu|mus_mus_mus_hu_False|48_78 (ssRNA)
RNA: GGGAGUUCUACAGUCCGACGAUCGUGAGGCCUCUGAGUGUGGCUUGUGGUCUGUCCUGUCUGCAGUUUGUUAAUAUCACGGAACAUACCACUUAAGACGUUCCAGUCCCGCCUGACACCUUCAUUCCCAAUGGAGAAGAAAUCCAACAGAGGAUUGAGCAUCA
B4: chr7:129668796:129668797:-_ENSG00000091732_ENST00000358303|hu_hu|FALSE|FALSE (ssRNA)
RNA: GGGAGUUCUACAGUCCGACGAUCGGAAGGAAGCUGGAGGUCCAAGUGACAAAGGCUUUGAAAACGAUCUAGGAAUUCACUAACAAGAAUAGCAGGCUCAUCCAGGGGCAACAUCCCAAAUCGGUCUGGGGAUGGGCUGUCUGGCAACAGAGGAUUGAGCAUCA
B5: chr1:29344824:29344825:+_ENSG00000159023_ENST00000356093|hu_hu|FALSE|FALSE (ssRNA)
RNA: GGGAGUUCUACAGUCCGACGAUCCACGCCAUGGAGUUCUGGGUCGUAGUCUCCCAGUUCAGACUGGAUGGUGUAAGAACCUAAUAAUGCUAAGGUUGCAAAGGAACAGGGCAGACGUCCUGCAACUAUGUCCUGCCGAAGCUGCAACAGAGGAUUGAGCAUCA
B6: 80228646_80228766_340_3pUTR_ENSG00000135338_ENST00000369846|human|control|control (ssRNA)
RNA: GGGAGUUCUACAGUCCGACGAUCCAGAUUAUUUUCUCCAGAGGAGACUAUGACAAUACUGAAAAACAUUUUCACAGUCUUCAGAUCCUGAUAAUAUUCAUUUCUGUGCAAUCUAUUUUCUCCACAAUGUAUUUGUAGACCACACAACAGAGGAUUGAGCAUCA

The other results are listed elsewhere or left out.

For this test, the target named is T1, UNK ZnF1-3. Nature of the test: nsRBNS (natural sequence RNA bind-n-seq); RBNS binding buffer (assumed for nsRBNS): 25 mM Tris pH 7.5, 150 mM KCl, 3 mM MgCl2, 0.01% Triton X-100, 500 ug/ml BSA, 20 U/ml SUPERase-In, 4 C; UNK is unkempt and MSI1 is Musashi-1; names of the RNAs are library labels; protein concentration not given here; high values mean tight binding.
Regarding B1, the binding signal came to 0.528 enrichment R. As for B2, the binding signal worked out at 1.47 enrichment R. As to B3, the binding signal came to 0.627 enrichment R. The result for B4 reads 1.53 enrichment R; that for B5, 0.657 enrichment R.

B6 showed a binding signal of 0.995 enrichment R.
